# According to publication PMC4336329 (PLoS ONE, 2015):
# The whole screen tested about 310,000 compounds, of which about 14,000 (4.5%) showed an effect of 50% or more. Effects have a minus sign here. Some of the results follow.
# Molecular target: human ether-à-go-go-related gene (hERG) potassium channel (human, UniProt Q12809)
# Assay: primary screen, population patch clamp on CHO cells stably expressing hERG
# 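Further: peak tail current of the secondary pulse compared with the same well before compound.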
# Chain of human ether-à-go-go-related gene (hERG) potassium channel (Q12809 whole entry, looked up): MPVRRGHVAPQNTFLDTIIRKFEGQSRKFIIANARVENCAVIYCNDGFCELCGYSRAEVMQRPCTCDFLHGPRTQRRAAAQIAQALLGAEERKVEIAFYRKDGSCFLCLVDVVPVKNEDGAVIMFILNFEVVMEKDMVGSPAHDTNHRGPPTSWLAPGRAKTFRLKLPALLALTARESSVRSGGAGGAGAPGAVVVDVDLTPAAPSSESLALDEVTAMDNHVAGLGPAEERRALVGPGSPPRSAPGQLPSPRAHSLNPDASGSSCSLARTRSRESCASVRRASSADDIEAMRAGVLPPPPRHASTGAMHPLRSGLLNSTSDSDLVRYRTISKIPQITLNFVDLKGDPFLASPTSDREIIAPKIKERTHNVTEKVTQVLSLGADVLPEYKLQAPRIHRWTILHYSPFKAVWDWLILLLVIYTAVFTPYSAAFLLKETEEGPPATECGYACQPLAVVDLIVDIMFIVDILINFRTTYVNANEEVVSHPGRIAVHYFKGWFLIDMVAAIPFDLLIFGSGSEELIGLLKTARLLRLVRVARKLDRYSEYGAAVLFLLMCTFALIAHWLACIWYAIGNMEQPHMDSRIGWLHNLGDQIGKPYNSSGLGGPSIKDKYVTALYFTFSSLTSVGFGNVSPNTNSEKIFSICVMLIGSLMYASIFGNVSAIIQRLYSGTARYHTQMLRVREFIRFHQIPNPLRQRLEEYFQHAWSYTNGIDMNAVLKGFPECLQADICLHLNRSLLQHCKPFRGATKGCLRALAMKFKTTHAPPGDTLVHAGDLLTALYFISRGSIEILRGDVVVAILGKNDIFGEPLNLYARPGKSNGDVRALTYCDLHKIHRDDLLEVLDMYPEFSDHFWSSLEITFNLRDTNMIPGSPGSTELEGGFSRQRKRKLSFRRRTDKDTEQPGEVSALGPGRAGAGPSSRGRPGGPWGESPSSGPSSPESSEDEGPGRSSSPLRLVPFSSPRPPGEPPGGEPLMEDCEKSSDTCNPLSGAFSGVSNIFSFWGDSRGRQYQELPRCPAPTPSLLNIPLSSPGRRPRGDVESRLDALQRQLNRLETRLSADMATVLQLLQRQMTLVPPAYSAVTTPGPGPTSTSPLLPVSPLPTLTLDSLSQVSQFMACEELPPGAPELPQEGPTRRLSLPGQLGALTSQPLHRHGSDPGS
row,Structure (SMILES),"hERG current change (%, negative = inhibition) at 10uM"
1,Cc1c(Cl)cccc1NC(=S)NCCC(c1ccccc1)c1ccccc1,7.85%
2,O=C1NC(c2ccccc2)=NC1(NS(=O)(=O)c1ccc(Cl)cc1)C(F)(F)F (stereo not shown),-2.26%
3,CC(=O)Nc1ccc(S(=O)(=O)N2CCN(c3nc(NC4CCCC4)c4ccccc4n3)CC2)cc1,-75.8%
4,COc1ncc(-c2ccc3c(c2)S(=O)(=O)c2cccc(C(=O)O)c2C3=O)cn1,12.6%
5,COc1ccc(N2CCN(CCNC(=O)Nc3ccc(Cl)cc3)CC2)cc1,-60.7%
6,COc1ccc(-c2noc(COc3ccc(C)c(C)c3)n2)cc1OC,3.69%
7,Cc1nnc2sc(-c3ccc(-c4ccc(Cl)c(C(F)(F)F)c4)o3)nn12,3.66%
8,CCCOc1ccc(Oc2ccc(S(=O)(=O)N3CCN(C)CC3)cn2)cc1,-10.9%
9,O=C(CSc1ccc2c(c1)OCCO2)Nc1ccc2c(c1)OCO2,1.43%
10,CCC1CCCCN1CCCNC(=O)c1nn(C)c2c1CS(=O)(=O)c1ccccc1-2 (stereo not shown),-26%
11,Cc1ccc(NC(=O)c2nc[nH]c2C(=O)N2CCCCC2)c(C(=O)c2ccccc2)c1,-15.3%
12,C=CCOC(=O)C1=C(C)NC(=O)NC1C1CC=CCC1 (stereo not shown),3.8%
13,O=C(Nc1cccc(O)c1)c1noc2c1CCc1ccccc1-2,-30%
14,CCc1nccn1CCC(=O)N1CCCC(N2CCN(c3ccccc3F)CC2)C1 (stereo not shown),-16.8%
15,CCCn1nnnc1NC(=O)COc1ccc(Cl)c(C)c1,5.38%
16,C=CCn1c(=NC(=O)c2cc(-c3cccs3)nc3ccccc23)sc2cc(S(N)(=O)=O)ccc21,13.1%
17,COc1ccccc1OCCn1cc(/C=C(\C#N)C(=O)NCc2cccs2)c2ccccc21,17.4%
18,CCN1C(=O)/C(=C2\C=Cc3ccccc3N2CC)OC1=S,13.5%
19,CCC1(c2ccccc2)NC(=O)N(CC(=O)Nc2ccccc2N2CCCCC2)C1=O (stereo not shown),-15.8%
20,Cc1ccc(NCC(=O)N/N=C/c2ccc(C(=O)O)cc2)cc1,10.5%
21,O=C(O)C1CC=CCC1C(=O)Nc1ccc2c(c1)OCCO2 (stereo not shown),1.51%
22,Cn1nc(C(=O)Nc2nc3ccccc3[nH]2)c2ccccc2c1=O,-47.1%

row,Structure (SMILES),"hERG current change (%, negative = inhibition) at 10uM"
1,O=C(NC1CCCC1)C(c1cccnc1)N(CCc1ccccc1)C(=O)c1ccco1 (stereo not shown),-69%
2,O=C(O)c1cccc(Nc2cc(Cl)c3nonc3c2[N+](=O)[O-])c1,8.13%
3,Cc1ccc(NC(=O)CSc2nc3c(c(=O)n(C)c(=O)n3C)n2C)cc1,-16.1%
4,CC1CN(S(=O)(=O)c2cccc(C(=O)N(Cc3nnc(-c4ccccc4Cl)o3)C3CC3)c2)CC(C)O1 (stereo not shown),-40%
5,O=C(CCC(=O)N1CCN(c2ccccn2)CC1)Nc1nnc(C(F)(F)F)s1,-1.22%
6,O=C(Nc1ccc(S(=O)(=O)NCC2CCCO2)cc1)c1cccc(F)c1 (stereo not shown),6.73%
7,CCOC(=O)c1sc(=S)n(-c2ccc(OC)cc2)c1N,15.2%
8,C/C=C/Cn1c(SCc2ccc(Cl)cc2)nc2c1c(=O)[nH]c(=O)n2C,-4.22%
9,COc1ccc(NC(C)C(=O)N/N=C/c2ccccc2OCc2cccc(Br)c2)cc1 (stereo not shown),9.56%
10,Cc1cnc(C(=O)Oc2cccc(Cl)c2Cl)cn1,25.6%
11,Cc1noc(C)c1COc1ccccc1C(=O)N1CCN(S(=O)(=O)c2ccccc2F)CC1,-19.2%
12,CC1(C)N=C(N)NC(Nc2ccccc2Cl)=N1,20.9%
13,CCn1cc(C(=O)NCc2cccs2)c(=O)c2cc(S(=O)(=O)N3CCOCC3)ccc21,-20.3%
14,O=C(CCC(=O)N(CC(=O)NC1CCCCC1)Cc1cccs1)Nc1ccccn1,-8.72%
15,COc1ccc(C)cc1NS(=O)(=O)c1cn(C)nc1C,0.63%
16,CCCC1CCC(C2=N/C(=C\c3ccc(OC)c(OC)c3)C(=O)O2)CC1 (stereo not shown),-11.5%
17,O=C(COc1ccc2ccccc2c1)N1CCN(C(=O)c2ccco2)CC1,-61.7%
18,c1ccc(-c2cc3c(N4CCCC4)ncnc3s2)cc1,0.659%
19,Cc1ccc(/C=C2\SC(=S)N(CCC(=O)NNC(=O)c3ccc(O)cc3)C2=O)cc1,9.84%
20,Cc1cc(C(=O)N(C)CC2CCCN(CCc3ccc(F)cc3)C2)c(C)o1 (stereo not shown),-75.7%
21,CC1CCN(C(=O)C(Cc2ccccc2)NS(=O)(=O)c2ccc3c(c2)oc(=O)n3C)CC1 (stereo not shown),-2.38%
22,Cc1ccc(-c2ccc(S(=O)(=O)N3CCN(C)CC3)cc2)cc1,-11.8%

row,Structure (SMILES),"hERG current change (%, negative = inhibition) at 10uM"
1,Nc1ccn([C@H]2CC[C@@H](CO)O2)c(=O)n1,17.5%
2,O=C(CC(=O)Nc1nc(C23CC4CC(CC(C4)C2)C3)cs1)NCCO,5.3%
3,C/C(=N\OCc1ccccc1C#N)c1cc2ccccc2o1,0.146%
4,COc1ccc(C(=O)NC(C)c2ccc(-n3ccnc3)cc2)c(OC)c1OC (stereo not shown),-53.1%
5,Cc1ccc(S(=O)(=O)NCCOc2nc(N(C)C)nc(N3CCOCC3)n2)cc1,-1.34%
6,Cc1cccc(NC(=O)c2cc(N3CCOCC3)nc3ccccc23)c1,2.69%
7,CCOC(=O)c1c(C)c(C(=O)NC(C)COC)c(C)n1C (stereo not shown),16.1%
8,CC1CCCC(C)N1C(=C(Cl)Cl)C(=C1SCCS1)[N+](=O)[O-] (stereo not shown),16.7%
9,CN(CCc1cnn(C)c1)Cc1cn[nH]c1-c1ccc(-c2ccccc2)cc1,-66.6%
10,COc1cc(C(=O)NCC(=O)NCC(c2ccco2)N2CCCCC2)cc(OC)c1OC (stereo not shown),13.6%
11,Cc1ccc(C(=O)NNC(=O)C(NC(=O)c2cccc(C)c2)C(C)C)cc1 (stereo not shown),11.9%
12,COc1ccc(CNC(=O)CCN2C(=O)c3ccccc3S2(=O)=O)cc1,-15.6%
13,Nc1nonc1-n1nnc(C(=O)N/N=C/c2ccncc2)c1-c1cccs1,-2.75%
14,O=C1OC(NC(=O)c2ccccc2)C(n2cc(CO)nn2)=C1Cl (stereo not shown),0.549%
15,Cc1ccc(C(=O)N2CC(C)SC2=Nc2cccc(S(=O)(=O)N(C)C)c2)cc1 (stereo not shown),-34.4%
16,CC(=O)N1CCCc2cc(S(=O)(=O)N3CCCC(C(=O)NCc4ccccc4Cl)C3)ccc21 (stereo not shown),-28.8%
17,CCOc1ccccc1C(=O)OCC(=O)NCC1CCCO1 (stereo not shown),16.7%
18,COc1ccccc1/C=C(\NC(=O)c1cccc(C)c1)C(=O)Nc1ccccn1,11.7%
19,Cc1ccc(Oc2ccc(Cl)cc2NC(=O)c2cnccn2)cc1,-2.52%
20,C/C(=N\NS(=O)(=O)c1ccc(C)c([N+](=O)[O-])c1)c1ccc2c(c1)OCO2,-4.81%
21,Cc1noc(/C=C/N(C)C)c1S(=O)(=O)N1CCCC(C(=O)N2CCCCC2)C1 (stereo not shown),7.66%
22,Cc1ccc(NC(=O)CSCc2ccc(F)cc2)cc1,-3.44%

row,Structure (SMILES),"hERG current change (%, negative = inhibition) at 10uM"
1,COc1cccc(N2CCN(c3ccc4nnc(CCC(=O)Nc5ccc(C)cn5)n4n3)CC2)c1,-30.5%
2,COCCCN(C(=O)Nc1ccc(C)c(C)c1)C(C)c1ccccn1 (stereo not shown),7.59%
3,CC(C)CNC(=O)C(=O)NCC1OCCN1S(=O)(=O)c1cccs1 (stereo not shown),2.31%
4,N#CC1(NC(=O)COc2ccc(S(=O)(=O)N3CCCC3)cc2[N+](=O)[O-])CCCCC1,-0.702%
5,COc1ccc(Cl)cc1N(CC(=O)NCCSCc1ccccc1)S(C)(=O)=O,-7.08%
6,CN(C)CCC=C1c2ccccc2C=Cc2ccccc21.Cl,-25.4%
7,COc1ccc(CNC(=S)Nc2ccc3nc(N4CCN(C)CC4)cc(C)c3c2)cc1,-51.1%
8,O=[N+]([O-])c1ccc(C(O)CN2CCN(C/C=C/c3ccccc3)CC2)cc1 (stereo not shown),-76.9%
9,Cc1c(C(=O)/C=C/N(C)C)nnn1-c1ccc(Cl)cc1C#N,18.9%
10,Cc1ccccc1Cn1c(C)cc(C)c(C#N)c1=O,6.39%
11,O=C(NCc1ccc(F)cc1)C1CC(=O)N(C2CCCC2)C1 (stereo not shown),8.22%
12,Cc1oc(-c2ccc(Cl)cc2)cc1C(=O)/C(C#N)=C/Nc1ccccc1,-2.96%
13,Cc1ccc(OCCn2c(C)c(/C=N/n3cnnc3)c3ccccc32)cc1,13.5%
14,C/C(=C\c1ccccc1)C(=O)N1CCN(Cc2ccc3c(c2)OCO3)CC1,-51.6%
15,Cc1ccc(/C=N/NC(=O)Cc2ccc(Cl)cc2)s1,-8.57%
16,Cc1nnc(SC(C)C(=O)NC2CCCCC2C)s1 (stereo not shown),5.57%
17,CC(Oc1cc2oc(=O)c3c(c2cc1Cl)CCC3)C(=O)NCCN1CCOCC1 (stereo not shown),-5.06%
18,CC(=O)c1c(N2CCOCC2)[nH]c(-c2ccccc2)nc1=S,12.2%
19,CCC(=O)N1c2ccc(S(=O)(=O)CCC(=O)NCCC3=CCCCC3)cc2CC1C (stereo not shown),-9.97%
